Whole data set: some 110,000 compounds, median “z-score” near -0.1, cut for the highest 2% near 2. The list shows a part of the results. Activity calls are given as the source filed them.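 The calls were made as follows: active = z-score in the third read window above 3 or below -3; inactive = the rest.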

The target in this assay is Metabotropic glutamate receptor 8 (Rattus norvegicus) (UniProt P70579). The assay is described as follows: mGluR8 Gi/Go-coupled signaling modulation – cell-based, rat, thallium flux, HTS, primary screen (AID 488969). Particulars: HEK293 rat mGluR8, GIRK (G protein-gated inwardly rectifying potassium channel) thallium flux, FluoZin2; at 10 µM; stronger effect = higher value; submaximal glutamate (EC20) added with thallium.
UniProt P70579, sequence (P70579 whole entry, looked up): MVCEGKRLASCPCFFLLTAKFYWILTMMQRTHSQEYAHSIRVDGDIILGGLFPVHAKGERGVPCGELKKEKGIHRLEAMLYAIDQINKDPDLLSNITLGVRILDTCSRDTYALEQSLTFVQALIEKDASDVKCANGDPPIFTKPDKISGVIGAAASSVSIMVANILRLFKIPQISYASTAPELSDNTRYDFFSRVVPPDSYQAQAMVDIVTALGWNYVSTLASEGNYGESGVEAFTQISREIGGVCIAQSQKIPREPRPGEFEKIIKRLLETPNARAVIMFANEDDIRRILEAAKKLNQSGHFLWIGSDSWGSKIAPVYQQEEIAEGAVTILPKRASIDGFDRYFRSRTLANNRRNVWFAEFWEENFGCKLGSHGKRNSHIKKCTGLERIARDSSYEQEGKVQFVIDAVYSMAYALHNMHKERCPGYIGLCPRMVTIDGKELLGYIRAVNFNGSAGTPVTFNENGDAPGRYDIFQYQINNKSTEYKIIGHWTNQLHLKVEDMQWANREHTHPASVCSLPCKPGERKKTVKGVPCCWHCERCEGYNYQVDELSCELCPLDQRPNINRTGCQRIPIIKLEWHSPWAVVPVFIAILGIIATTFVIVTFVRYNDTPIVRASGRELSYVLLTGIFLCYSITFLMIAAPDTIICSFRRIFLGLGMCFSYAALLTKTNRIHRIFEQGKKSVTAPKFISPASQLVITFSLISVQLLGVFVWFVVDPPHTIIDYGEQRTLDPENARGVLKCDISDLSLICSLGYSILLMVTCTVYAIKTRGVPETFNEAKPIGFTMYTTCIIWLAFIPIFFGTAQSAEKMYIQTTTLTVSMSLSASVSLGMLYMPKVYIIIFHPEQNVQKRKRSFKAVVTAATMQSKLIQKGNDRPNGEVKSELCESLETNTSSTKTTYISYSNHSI
`O=C(NC1CCCCC1)C(c1cccs1)N(C(=O)Cc1c[nH]c2ccccc12)c1ccc(F)cc1` (stereo not given) returned a z-score of 0.108. In the case of `Cc1ccc2oc(-c3cccc(NC(=O)c4ccc(Br)o4)c3C)nc2c1`, the z-score was -0.242. The compound `O=C(N/C(=C\c1cn(-c2ccccc2)nc1-c1ccc(Cl)cc1)C(=O)N1CCOCC1)c1ccccc1` gave a z-score of -0.0568. For `CC(C)c1nnc(SCC(=O)Nc2ccc3c(c2)OCO3)n1C`, the z-score is -0.159.

`COc1ccc2cnnc(SCC(=O)Nc3ccc(C(=O)O)cc3)c2c1OC`: the z-score turned out to be 0.0402. For `CCC(C)NC(=O)CSc1nc2c(sc(=S)n2Cc2ccco2)c(=O)n1-c1ccccc1` (stereo not given), the z-score was 0.437. As to `Cc1cccnc1Nc1nc(-c2ccc(O)cc2O)cs1`, the z-score worked out at 0.0679. `CCOC(=O)c1cccc(NC(=O)N[C@@H](C)C(=O)OC)c1` returned a z-score of 0.116. Regarding `Cc1ccn2cc(CCNS(=O)(=O)c3ccc4c(c3)OCCO4)nc2c1`, the z-score is -0.433. Take `CCn1c(SCC(=O)NCCc2ccc(Cl)cc2)nnc1-c1cccs1`: the z-score is -0.84. Next, `Cc1cc(=O)oc2c1ccc1oc(/C(=N/O)c3ccccc3)c(C)c12`: -0.065; `COc1ccccc1NS(=O)(=O)c1ccc(C(=O)OCC(=O)NCc2ccco2)cc1`: -0.0327. `O=C(NNC1=C(C(=O)C(F)(F)F)CCC1)c1ccccc1O` gave a z-score of -0.487. Next, `O=C(N/N=C/c1ccc(F)c(F)c1)c1cc2c(s1)-c1ccccc1CC2`: 0.14. The value for `COc1ccc(C2C(C#N)=C(N)OC3=C2C(=O)CC(C)(C)C3)cc1Cn1cc([N+](=O)[O-])cn1` (stereo not given) was -0.0568; that for `Cc1c(NC(=O)c2cnn3c2NC(c2ccco2)CC3C(F)(F)F)c(=O)n(-c2ccccc2)n1C` (stereo not given) was -0.265; that for `Cc1ccc2c(C(=O)CN3CCC4(CC3)OCCO4)c(C)[nH]c2c1` was -0.0354. The compound `COc1cc(/C=N/Nc2snc(SC)c2C#N)cc(OC)c1OC` came in with a z-score of -0.317. `O=C(C1CCCN(S(=O)(=O)Cc2ccccc2)C1)N1CCc2ccccc21` (stereo not given) displayed a z-score of -0.0888.

`COc1cc2c(=O)nc3n(c2cc1OC)C(c1ccccc1)N=C(N)N3` (stereo not given) registered a z-score of -0.235.

On to `CCOc1ccc2nc3ccc4[nH]onc4c3c2c1`, for which the z-score was -0.046. Consider `COc1ccc(-c2cn3c4c(sc3n2)CCCC4)cc1`, for which the z-score came out at 1.67. The value for `O=C1CCCC2=C1C(c1ccccn1)Nc1ccc(C(=O)c3ccccc3)cc1N2` (stereo not given) was -0.181; that for `N#Cc1cccc(NC(=O)CSc2ccc3c4c(cccc24)C(=O)c2ccccc2-3)c1` was -0.0107; that for `CCCCCNC(=O)CC1Nc2c3ccccc3nc(=S)n2C1=O` (stereo not given) was -0.0711. Next, `Cc1cc(C)n(-c2ccc(C(=O)OCC(=O)Nc3ccc(Cl)c(S(=O)(=O)N(C)C)c3)cc2)n1`: active: 15.5; `Cc1cc(OCC(=O)c2ccc(F)cc2)ccc1N1C(=O)CCC1=O`: -0.524. Next, `COc1cc(C2NC(=O)NC(C)=C2C(=O)OCC2CCCO2)ccc1O` (stereo not given): 0.215. The compound `CSCCC(NC(=O)C12CC3CC(CC(C3)C1)C2)C(=O)OCC(=O)c1ccccc1` (stereo not given) registered a z-score of -0.248. Next, `O=C(N/N=C/c1ccc[nH]1)c1cccc([N+](=O)[O-])c1`: -0.104; `Cc1cc2ccccc2n2c(SCC(=O)Nc3ccc(S(=O)(=O)N4CCC(C)CC4)cc3)nnc12`: -2.15. Next, `NNC(=O)c1nn(-c2ccc(Cl)cc2)ccc1=O`: 0.102.

As for `CC(C(=O)Nc1ccc(S(=O)(=O)N2CCCC2)cc1)N1CCN(C(=O)c2ccco2)CC1` (stereo not given), the z-score is -0.141. The value for `CCOC(=O)CNC(=O)CSc1nnnn1-c1cc(C)ccc1C` was -0.31; that for `Cc1cc(C)nc(N2CCCC(C(=O)NCc3cccc(C(F)(F)F)c3)C2)n1` (stereo not given) was 0.115.

As for `COc1ccc(C(=O)NNC(=O)c2ccccc2[N+](=O)[O-])cc1Br`, the z-score is -0.113.

In the case of `CC(=O)Nc1ccc(S(=O)(=O)N2CCN(C(=O)c3cccnc3)CC2)cc1`, the z-score was found to be 0.0439. `COc1ccc(C(=O)CSc2nc(SC)ns2)cc1OC` returned a z-score of -0.163. In turn, `COc1ccc(N(C)S(=O)(=O)c2cccc(C(=O)NCC3CCCO3)c2)cc1` (stereo not given) returned a z-score of 0.564. In turn, `COc1ccc(C(=O)NCC(C)(C)SCc2c(C)cc(C)cc2C)cc1` returned a z-score of 0.119. Next, `Cn1cc(C(=O)N/N=C/C(Br)=C\c2ccccc2)ccc1=O`: -0.0291; `COc1cccc(C(=O)/C=C/Nc2cc(C)ccc2O)c1`: 0.572. Consider `Cc1ccc(OCC(=O)NCCO)cc1C`, for which the z-score was found to be 0.0429. The compound `Oc1ccccc1C(=S)N1CCCCCC1` displayed a z-score of 0.672. Next, `Cc1ccc(O)c(C(=O)c2cnc3onc(-c4ccc(F)cc4)c3c2)c1`: -0.451; `CCC(=O)N1CCN(c2nc(-c3ccc(Cl)cc3)cs2)CC1`: -0.503. The value for `COc1ccccc1OCc1nnc(SCC(=O)N2CCCCC2)n1-c1ccccc1` was 1.31; that for `CCc1nnc(NC(=O)c2cc(S(=O)(=O)N3CCN(c4ccccc4)CC3)ccc2Cl)s1` was -0.438. Next, `O=C(NC1CCCCCC1)C1CCN(S(=O)(=O)c2cccc3cccnc23)CC1`: -0.286; `N#Cc1c(NC(=O)c2cnccn2)sc2c1CCCC2`: -0.0643. The compound `CC(NC(=O)C12CC3CC(C1)CC(n1cncn1)(C3)C2)C12CC3CC(CC(C3)C1)C2` (stereo not given) showed a z-score of -0.133. In turn, `CCn1c(SCC(=O)Nc2nc3ccc(C)cc3s2)nc2c(c1=O)SC(C)C2` (stereo not given) had a z-score of -1.03.

On to `CCSc1nnc(-c2ccncc2)o1`, for which the z-score is -0.0123. Compound `CSc1nsc(SC)c1NC(=O)N1CCCC1` had a z-score of 0.0681. The value for `CC(=O)c1ccc(NC(=O)CSCCO)cc1` was 0.274; that for `Cc1ccccc1Nc1nc(N)nc(CSCC(=O)Nc2cccc(Br)c2)n1` was -0.135.

Compound `CC(C)(C)c1ccc(-c2nc(C#N)c(NCc3cccnc3)o2)cc1` displayed a z-score of -0.284. `COc1ccc(C)cc1N(C(=O)c1ccccc1F)c1nc2ccccc2s1` displayed a z-score of -0.537. On to `O=C(NCc1ccco1)c1cc(S(=O)(=O)N2CCOCC2)ccc1Cl`, for which the z-score is 0.348. The value for `COc1ccc(N(C)C(=O)c2cc3c(Cl)nc4ccccc4c3s2)cc1` was -0.115; that for `CCOC(=O)C(CC)Sc1nnc2c3cc(C)ccc3n(C)c2n1` (stereo not given) was -0.798; that for `Cc1n[nH]c(C)c1C(=O)CC1(O)C(=O)N(Cc2ccccc2)c2ccc(Br)cc21` (stereo not given) was -0.471.

`CCn1c(SCC(=O)Nc2ccc(OC)cc2)nnc1-c1ccco1`: the z-score was -0.0548. Next, `C=CCn1c(=O)c2c(C)c(C)sc2n2c(Nc3ccccc3)nnc12`: -0.666. On to `CCCCOc1ccc(N2C(=O)CC(NCCc3ccc(S(N)(=O)=O)cc3)C2=O)cc1` (stereo not given), for which the z-score came to 0.405. In turn, `C=CCOc1ccc(Br)cc1CNCCCN1CCOCC1` displayed a z-score of -0.208. The compound `CCOC(=O)c1c(-c2ccccc2)csc1NC(=O)/C(C#N)=C/c1ccc(O)c(OC)c1` had a z-score of 0.0797. Next, `C=CCn1c(CCC(=O)O)ccc1-c1ccccc1`: -0.312; `COc1cc(S(=O)(=O)N2CCN(c3ccc(F)cc3)CC2)ccc1Cl`: 0.617; `CCOC(=O)C(Cc1ccccc1)NS(=O)(=O)c1ccc(NC(C)=O)cc1` (stereo not given): -0.022. `COc1ccc(-c2csc(N3C(=O)C4C5c6ccccc6C(c6ccccc65)[C@@H]4C3=O)n2)cc1` (stereo not given in full): the z-score worked out at 0.33. Next, `Fc1cccc(NC(=S)NCc2cccnc2)c1`: 0.461; `COc1ccc(C(=O)/C(C#N)=N/Nc2ccccc2[N+](=O)[O-])cc1`: 0.502.

For `O=C(Nc1ccccn1)C(=O)N1CCCCC1`, the z-score amounted to 0.0768.

As for `Cc1ccc(N(CC(O)CN2CCOCC2)S(=O)(=O)c2ccc3ccccc3c2)cc1` (stereo not given), the z-score stood at 1.8. The value for `Cc1nc2ccc(NC(=O)c3cccc(S(=O)(=O)N(C)c4ccccc4)c3)cc2s1` was -0.293; that for `Cc1nc2ccccc2n1/C(=N/S(=O)(=O)c1ccc(Br)cc1)c1ccccc1` was -0.603; that for `Cn1nc(C(=O)OCC(=O)N2CCc3ccccc32)c2ccccc2c1=O` was -2.23.

For `C=CC(=O)NCCCc1cc(C(C)(C)C)c(O)c(C(C)(C)C)c1`, the z-score was -0.193. Next, `CC1CC(C)CN(C(=O)CSC2=Nc3ccccc3C3=NC(Cc4c[nH]c5ccccc45)C(=O)N23)C1` (stereo not given): -0.201; `COc1ccc2nc(SCC(N)=O)cc(C)c2c1`: -0.286; `C=CCn1c(SCC(=O)c2cccs2)nc2sc(C)c(C)c2c1=O`: -0.231.

The compound `O=S(=O)(c1ccccc1)N1CCN(C2CCCCCCC2)CC1` returned a z-score of 0.777. The value for `CCCC(=O)Nc1ccc(C(=O)N/N=C/c2ccc[nH]2)cc1` was -0.169; that for `Cc1ccccc1OCC(=O)Nc1ccc2c(c1)Cc1ccccc1-2` was -0.198.

`C=CCN1C(=O)/C(=C/c2ccc(N(C)C)cc2)S/C1=N\c1nnc(CC)s1` had a z-score of -0.0819.

For the compound `O=C(NCc1ccc2c(c1)OCO2)c1ccc(=O)[nH]c1`, the z-score worked out at 0.293.

Regarding `C(=N\n1cnnc1SCc1ccccc1)/c1ccco1`, the z-score is 0.0511.

In turn, `O=C(O)Cc1ccc(NC(=S)Nc2cccc(Cl)c2Cl)cc1` came in with a z-score of 0.436. Compound `O=C(COC(=O)c1ccccc1NC(=O)c1ccco1)Nc1ccc2c(c1)OC(F)(F)O2` displayed a z-score of 0.0797. For the compound `CSCCC1NC2(C(=O)Nc3c2ccc(Cl)c3C)[C@@H]2C(=O)N(C3CCCC3)C(=O)[C@H]12` (stereo not given in full), the z-score came to 1.21. In the case of `O=S(=O)(Cc1ccccc1)N1CCc2ccccc21`, the z-score is active: -4.91. Next, `COc1cccc(-c2nnc(SCC(=O)NCc3ccc4c(c3)OCO4)n2Cc2ccco2)c1`: -0.486. Next, `O=C(c1ccc([N+](=O)[O-])cc1)N1CCOC12CCN(c1ncc(C(F)(F)F)cc1Cl)CC2`: -0.0523. The compound `CCn1nnnc1-c1ccc(OC)c(S(=O)(=O)Nc2ccc(OC)cc2)c1` gave a z-score of 0.233. `CCOC(=O)c1oc2nc(C)c3c(c2c1N)CC(C)(C)OC3` had a z-score of 0.0983.

For the compound `COc1cc2c(cc1OC)C(c1cccs1)CC(=O)N2` (stereo not given), the z-score is -0.92. In turn, `Cc1cc(NC(=O)/C=C/c2cccc(F)c2)n(-c2nc3ccccc3[nH]2)n1` displayed a z-score of 0.306. Next, `Cc1nnc(Sc2c(N)n(C)c(=O)[nH]c2=O)s1`: -0.32; `CCCn1c(SC(C(=O)Nc2cccc(OC)c2)c2ccccc2)nc2ccccc2c1=O` (stereo not given): -0.276; `CC(C)(C)n1nnnc1C(c1ccc(C(F)(F)F)cc1)N(Cc1ccc(F)cc1)Cc1ccco1` (stereo not given): -0.353.

The compound `Cc1cc(C)cc(-n2c(O)c(C=NC3CCS(=O)(=O)C3)c3ccccc3c2=O)c1` (stereo not given) came in with a z-score of -0.376.

`c1ccc(NC2=Nc3ccccc3CC2)cc1`: the z-score came to 0.639. In turn, `COc1cc(C(=S)N2CCOCC2)cc(OC)c1OC(=O)c1cc([N+](=O)[O-])c(C)c([N+](=O)[O-])c1` had a z-score of 0.321.

In turn, `c1ccc(CCN2CN=C(Nc3nc4ccccc4o3)NC2)cc1` displayed a z-score of -0.027.

The values are drawn from PubChem BioAssay AID488969 (Vanderbilt High Throughput Screening Facility, 2010).
